# Laboratory results as given in PubChem BioAssay AID588855 (National Center for Advancing Translational Sciences (NCATS), 2011).
# “And” between values parts separate entries of the source, which are not always exact repeats. Identical values can stand only once. The campaign covered roughly 410,000 compounds. About 5,000 (1.2%) were called active. The shares of active, inactive and inconclusive entries below differ from those in the screen. Calls follow the shape of the dose curve; as a rule, active = well fitted inhibition curve with a large enough effect; inconclusive = small, poorly fitted or top-dose-only effect; inactive = no such curve, though single readings can be large or run the other way. Where the call is inconclusive, the potency comes from a doubtful curve fit.
# Test: qHTS for Inhibitors of TGF-b; also: nearly all actives have a fitted effect of over 65% in size
# Details: HepG2 CAGA-GFP TGF-b/SMAD3 reporter, GFP fluorescence, 18 h, TGF-beta stimulated, 500 pg/mL final; series mostly up to 46.1 µM; activity, negative = inhibition: at the top concentration
# Procedure, shortened: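 Per well, imaged GFP fluorescence of HEPG2 CAGA-GFP cells gives the signal; cells get compound, then TGF-beta (500 pg/mL final), 18 h at 37 degrees C; %Activity versus -TGF-beta and +DMSO controls.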
# % is scaled to controls: 0 for no effect and ±100 for the full control effect; potency is read from the fitted curve at half-maximal effect; tags tell the direction and shape of the fitted curve.
SMILES,"activity, negative = inhibition",Potency
Cc1ccc(S(=O)(=O)n2cnc3cc([N+](=O)[O-])ccc32)cc1C,inactive: -16.1%,
C/C(=N\Nc1cc(-c2ccccc2)nc(-c2ccc(Br)cc2)n1)c1cccc(N)c1,,"inconclusive: 22.4 µM [inhibitor, single point]"
COc1cccc(Nc2ccc(N3CCCCC3)cc2)c1OC,,"inconclusive: 8.91 µM [inhibitor, partial curve, poor fit]"
COc1ccc(C(NC(C)=O)c2cc(Cl)c3cccnc3c2O)cc1 (configuration not stated),,active: 7.08 µM
COc1cc2c(cc1OC)C(c1ccc(-c3ccc(Cl)c(Cl)c3)o1)=NCC2,,active: 11.2 µM
COc1ccccc1CNc1ccc(N2CCCCC2)cc1,,"inconclusive: 31.6 µM [inhibitor, single point]"
C[C@@H]1COC(=O)[C@@H](Cc2ccc(F)cc2)C/C=C\C[C@@H](CC(=O)N(CCO)Cc2ccccc2)C(=O)N1,,"inconclusive: 35.5 µM [inhibitor, single point]"
CC1C2=C(CC(C)(C)CC2=O)NC2=C1C(=O)CC(C)(C)C2,,"inconclusive: 3.55 µM [inhibitor, partial curve, poor fit]"
CCc1ccc(-c2nc(CN3CCCC(C(=O)NCc4ccccc4Cl)C3)c(C)o2)cc1 (configuration not stated),,"inconclusive: 10 µM [inhibitor, partial curve, poor fit]"
Nc1c(C(=O)N2CCOCC2)sc2nc3c(cc12)CCCC3,inactive: 3.79%,
Cc1cc(C)cc(OCC(=O)N(C)CC(=O)Nc2ccc(Cl)c(C(F)(F)F)c2)c1,,"inconclusive: 22.4 µM [inhibitor, single point]"
CC(Oc1ccc(Br)cc1)C(=O)Nc1ccc(N2CCOCC2)cc1N1CCOCC1 (configuration not stated),inactive: -1.92%,
COc1ccc(NC(=O)Nc2ccc(Cc3ccncc3)cc2)c(OC)c1,,"inconclusive: 11.2 µM [inhibitor, partial curve, poor fit]"
CCc1ccc(Nc2nnc(SCC(=O)Nc3cccnc3Cl)s2)cc1,inactive: -5.01%,
COc1ccc(CN2C(=O)C(C)Nc3ncnc(N4CCN(c5ccccn5)CC4)c32)cc1 (configuration not stated),inactive: 3.78%,
N#CC(C#N)=C1C=CC=CN1/C(=C\c1ccco1)C(=O)c1ccc(Cl)cc1,,"inconclusive: 6.31 µM [inhibitor, single point]"
COc1ccc(C(=O)Nc2ccccc2)cc1NC(=O)c1ccc([N+](=O)[O-])cc1,,"inconclusive: 2.82 µM [inhibitor, partial curve, poor fit]"
CCCCCOc1ccc(C(=O)CCN2CCOCC2)cc1,,"inconclusive: 15.8 µM [inhibitor, partial curve, poor fit]"
CC(=O)OC1CCC2(C)C(COc3ccc4ccc(=O)oc4c3)C(C)(O)CCC2C1(C)C (configuration not stated),,"inconclusive: 35.5 µM [inhibitor, single point]"
COc1ccc(-c2nc(-c3ccccc3)c(-c3cccs3)[nH]2)cc1OC,,"inconclusive: 25.1 µM [inhibitor, single point]"
COc1cccc(NC(=O)C2CCN(Cc3cnn(-c4ccccc4)c3-n3cccc3)CC2)c1,inactive: -0.234%,

SMILES,"activity, negative = inhibition",Potency
CCCCCCCCC(c1nc2ccccc2[nH]1)N1CCN=C(c2ccccc2)C1=O (configuration not stated),,"inconclusive: 17.8 µM [inhibitor, single point]"
Cc1ccc(N2CCN(S(=O)(=O)c3nnc(NC(=O)c4cccc(F)c4)s3)CC2)cc1,,"inconclusive: 28.2 µM [inhibitor, single point]"
COc1ccc(/C=C2\SC(=O)N(CCCC(=O)Nc3cc(Cl)ccc3C(=O)O)C2=O)cc1,inactive: -11.4%,
Cc1ccccc1Nc1nnc(SCC(=O)Nc2ccccc2[N+](=O)[O-])s1,,"inconclusive: 17.8 µM [inhibitor, single point]"
Cc1ccc(-c2noc(CCC(=O)NC3CCN(Cc4ccccc4)CC3)n2)cc1,inactive: 3.67%,
COc1cccc(Cn2c(=O)n(-c3cc(C)cc(C)c3)c(=O)c3oc4ccccc4c32)c1,,"inconclusive: 11.2 µM [inhibitor, partial curve, poor fit]"
COc1ccc(S(=O)(=O)N2CCOCC2)cc1NC(=O)CN1CCN(C)CC1,inactive: 5.51%,
Cc1cc(C)nc(Sc2ccc([N+](=O)[O-])cc2[N+](=O)[O-])n1,,"inconclusive: 3.55 µM [inhibitor, single point]"
COc1cccc(OCCn2c(-c3ccc(Cl)cc3)nc3ccccc3c2=O)c1,inactive: 10.7%,
Cc1ccc(Oc2ccc(S(=O)(=O)N3CCOCC3)cc2C(N)=O)c(-n2nc3ccccc3n2)c1,,"inconclusive: 35.5 µM [inhibitor, single point]"
COCCCNc1oc(-c2ccc(COc3ccccc3C)o2)nc1C#N,inactive: 0.931%,
CCCCN1CC[C@H]2C=CC[C@@H](C(=O)Nc3nccs3)[C@H]2C1=O,,"inconclusive: 6.31 µM [inhibitor, single point] and inconclusive: 5.62 µM [inhibitor, single point]"
c1ccc(C(c2ccccc2)N2CCN(Cc3nnnn3C3CCCCC3)CC2)cc1,,"inconclusive: 35.5 µM [inhibitor, single point]"
COc1cc(NC(=O)[C@H]2CCCN2S(=O)(=O)c2cccc3cccnc23)cc(OC)c1OC,,"inconclusive: 35.5 µM [inhibitor, partial curve, poor fit]"
COc1cc(C(=O)N/N=C/c2cc([N+](=O)[O-])cs2)cc(OC)c1OC,inactive: -23.4%,
O=C(N/N=C\c1cn[nH]c1-c1ccccc1)c1ccc([N+](=O)[O-])cc1,inactive: 0.823%,
Cc1ccc(N2CC(C(=O)NCCS(=O)(=O)N3CCN(c4ccc(F)cc4)CC3)CC2=O)cc1 (configuration not stated),,inactive
Cn1c(Cc2ccccc2)n[nH]c1=S,inactive: -23.7%,
CN(Cc1ccccc1)S(=O)(=O)c1ccc2[nH]cc(C(=O)NCC3CCCO3)c(=O)c2c1 (configuration not stated),,"inconclusive: 15.8 µM [inhibitor, single point]"
COc1ccc(CCNC(=O)c2cc(-c3ccc(C)cc3)nc3n[nH]c(-c4ccc(F)cc4)c23)cc1OC,inactive: 4.92%,
CN1CCN(C(c2cccc(C(F)(F)F)c2)c2nnnn2Cc2ccccc2)CC1 (configuration not stated),,"inconclusive: 15.8 µM [inhibitor, single point]"
